# Source: PubChem BioAssay AID602179 (National Center for Advancing Translational Sciences (NCATS), 2012)
# In all, about 390,000 compounds went through this assay and about 360 (0.092%) were called active. The inconclusive results got no clear call from the source; some entries with a clear call stand among them for comparison. The call rests on the fitted dose curve; in most records, active means well fitted inhibition curve with a large enough effect; inconclusive means small, poorly fitted or top-dose-only effect; inactive means no such curve, though single readings can be large or run the other way. Potencies beside an inconclusive call are fits to weak or partial responses and may not hold up.
# Target: Isocitrate dehydrogenase [NADP] cytoplasmic (Homo sapiens) (UniProt O75874)
# Assay: qHTS for Inhibitors of mutant isocitrate dehydrogenase 1 (IDH1): qHTS; further: nearly all actives have a fitted effect of over 65% in size
# Conditions: IDH1-R132H enzyme, NADPH consumption, diaphorase/resazurin fluorescence; series mostly up to 76.6 µM; activity change, negative = inhibition: at the top concentration
# Method in brief: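 IDH1-R132H (0.5 ug/mL dispensed) in pH 7.5 Tris buffer was preincubated 30 min with compound, then given a substrate mix of 0.016 mM NADPH and 2 mM alpha-KG for 80 min at room temperature; remaining NADPH was read by diaphorase/resazurin fluorescence.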
# On the % scale 0 is the no-effect control and ±100 the full control effect; potency means the concentration at half of the fitted maximal effect; tags describe the fitted curve by direction and shape.
SMILES,Potency,"activity change, negative = inhibition"
O=C(O)/C=C/C(=O)Nc1ccc(C2(c3ccc(NC(=O)/C=C/C(=O)O)cc3)c3ccccc3-c3ccccc32)cc1,"inconclusive: 58.5 µM [inhibitor, single point]",
Cc1c(CCC(=O)NCCCn2ccnc2)c(=O)oc2c(C)c3oc4c(c3cc12)CCCC4,"inconclusive: 50.1 µM [inhibitor, partial curve, poor fit]",
Cc1nnc(N2CCCC(C(=O)Nc3cccc(C(F)(F)F)c3)C2)c2nn(-c3ccccc3)c(C)c12 (centres undefined),"inconclusive: 44.7 µM [inhibitor, partial curve, poor fit]",
COc1ccc2c(C(=O)c3ccc(C)cc3)n(Cc3ccc(C(N)=O)cc3)[n+]([O-])c2c1,"inconclusive: 25.1 µM [inhibitor, full curve]",
CCOC(=O)C1=C(CS(=O)(=O)c2ccc(C(C)(C)C)cc2)NC(=O)NC1c1cccc(OC)c1 (centres undefined),"inconclusive: 50.1 µM [inhibitor, single point]",
CCn1c(C)cc(=S)c2ccccc21,,inactive: -0.389%
Cc1ccc(C)c(NCC(=O)c2ccc(Cl)cc2)c1,"inconclusive: 23.3 µM [inhibitor, partial curve, poor fit]",
O=S(=O)(c1ccc(-c2n[nH]c(=S)o2)cc1)N1CCCCC1,"inconclusive: 46.5 µM [inhibitor, partial curve]",
Cn1c(=O)c2cc(C(=O)N3CCN(c4cccc(C(F)(F)F)c4)CC3)sc2c2ccccc21,"inconclusive: 50.1 µM [inhibitor, single point]",
O=C(NCCc1cccs1)c1ccc(Cn2c(SCc3ccccc3)nc3cccnc32)cc1,,inactive: -6.4%
COc1ccc(C(C(=O)NC2CCCC2)N(C(=O)c2snc(C(N)=O)c2N)c2cc(C)ccc2OC)cc1OC (centres undefined),"inconclusive: 20.7 µM [inhibitor, partial curve]",
COc1ccc(NC(=O)C[C@H]2C(=O)N(Cc3cccnc3)C[C@@H]2Cc2ccccc2)cc1,,inactive: 13.9%
COCCNC(=O)Cn1nc(C)c2c(C)n(-c3ccc(C)cc3)nc2c1=O,"inconclusive: 70.8 µM [inhibitor, single point]",
N#CC1=C(N)C2=CCCC[C@H]2[C@H](c2cccc(F)c2)C1(C#N)C#N,active: 46.5 µM,
CCCNC(=O)CCc1nnc2ccc(N3CCN(c4cccc(OC)c4)CC3)nn12,,inactive: -13.5%
CCOC(=O)c1c(C)[nH]c(C2=NNC(=NC3CC3)SC2)c1C,"inconclusive: 11.7 µM [inhibitor, full curve]",
O=C(C[C@H]1C[C@H](C(=O)N2CCOCC2)[C@@]2(CCC3CCCC3)c3[nH]c4ccc(Cl)cc4c3CCN2C1=O)NCCc1ccccn1,"inconclusive: 35.5 µM [inhibitor, partial curve]",
CCOC(=O)C1CCCN(C(=S)NC2CCCC2)C1 (centres undefined),"inconclusive: 16.5 µM [inhibitor, partial curve, poor fit]",
Cc1ccc(S(C)(=O)=N/C=C2\C(=O)c3sccc3N(C)S2(=O)=O)cc1 (centres undefined),"inconclusive: 58.5 µM [inhibitor, single point]",
O=C(Nc1ccc(F)c(Cl)c1)Nc1ccc(Cl)cn1,,inactive: 6.85%
O=C(/C=C/c1ccc(O)c(O)c1)c1ccc(S(=O)(=O)N2CCCCCC2)cc1,"inconclusive: 50.1 µM [inhibitor, single point]",
Cc1ccc(C(=O)CCS(=O)(=O)c2ccc(Cl)cc2)cc1,,inactive: 0.54%
Cc1ccccc1-n1nnnc1SCC(=O)Nc1ccc(N2CCN(C)CC2)cc1,,inactive: 0%

SMILES,Potency,"activity change, negative = inhibition"
C#CCNC(=O)C1=C[C@H](C(C)(C)C)C[C@H](OCc2ccc(CO)cc2)O1,,inactive: -3.19%
Cc1cc(Cl)n2nc(C)c(-c3ccc(Cl)cc3)c2n1,"inconclusive: 63.1 µM [inhibitor, single point]",
Cc1cccc(Nc2ncnc3nc[nH]c23)c1,,inactive: 13%
COc1ccc(-c2noc(CCCCC(=O)N3CCN(c4cc(C)ccc4C)CC3)n2)cc1,,inactive: 2.06%
Cc1nc2c(C(=O)NCc3ccco3)cnn2c(C)c1Cc1ccc(F)cc1Cl,,inactive: -5.43%
Cc1ccc(-n2ncc3c(=O)[nH]c(SCC(=O)N4CCCc5ccccc54)nc32)cc1,"inconclusive: 32.9 µM [inhibitor, partial curve]",
c1ccc(-c2nnc3sc(-c4csc5c4CCCC5)nn23)cc1,"inconclusive: 58.5 µM [inhibitor, single point]",
COc1ccc(N2CCN(C(CNC(=O)c3ccc(C)cc3)c3ccc4c(c3)OCO4)CC2)cc1 (centres undefined),,inactive: 5.12%
COc1cc(-c2nc3ccccn3c2/N=C/c2cc(OC)c(O)cc2Cl)ccc1O,"inconclusive: 36.9 µM [inhibitor, partial curve, poor fit]",
COc1ccc(CN(CCC(c2ccc(F)cc2)C2CCOC(C)(C)C2)C(=O)c2ccco2)cc1 (centres undefined),"inconclusive: 20.7 µM [inhibitor, full curve]",
COc1ccc(N(C(=O)c2cnccn2)C(C(=O)NC2CCCCC2)c2ccccc2)cc1 (centres undefined),"inconclusive: 14.7 µM [inhibitor, full curve]",
COc1ccc2cc(S(=O)(=O)c3ccccc3F)c(=O)oc2c1,"inconclusive: 50.1 µM [inhibitor, single point]",
CC(C)CNS(=O)(=O)c1ccc(OCC(=O)Nc2ccc(F)cc2F)cc1,,inactive: 3.2%
O=C(Nc1ccccc1)c1ccc(F)c(S(=O)(=O)N2CCOCC2)c1,,inactive: 5.04%
COc1ccc(CN2C(=O)c3cccnc3C2O)cc1 (centres undefined),"inconclusive: 58.5 µM [inhibitor, single point]",
COc1ccccc1CNc1nc(-c2ccco2)nn1C(=O)c1ccccc1[N+](=O)[O-],,inactive: 0%
O=c1oc2c3c4c(cc2c2c1CCC2)OCCN4CCC3,"inconclusive: 36.9 µM [inhibitor, partial curve]",
N#Cc1c2c(c(Nc3ccc(F)cc3)n3c1nc1ccccc13)CCCC2,"inconclusive: 23.3 µM [inhibitor, full curve]",
CCOC(=O)c1ccc(N2C(=O)c3[nH]nc(-c4ccccc4)c3C2c2cccs2)cc1 (centres undefined),"inconclusive: 50.1 µM [inhibitor, single point]",
CCOc1ccccc1Oc1cn[nH]c1-c1ccc(OCC(=O)NN)cc1O,"inconclusive: 63.1 µM [inhibitor, single point]",
CCN(C=NC1=NN(c2cccc(C(F)(F)F)c2)CC1)CC,,inactive: 9.06%
CC(=O)Oc1ccc2c(c1)CCC1C2CCC2(C)C(OC(C)=O)CCC12 (centres undefined),,inactive: -7.35%
COc1ccc(CCN(C)CC(O)COC(c2ccc(F)cc2)c2ccc(F)cc2)cc1OC (centres undefined),,inactive: 2.43%

SMILES,Potency,"activity change, negative = inhibition"
Cc1ccc(C)c(N2CCN(C(=O)C3CCN(S(=O)(=O)c4cn(C)cn4)CC3)CC2)c1,,inactive: -6.48%
CC1=NN(c2nc(N)nc(/C(C#N)=C/c3ccc([N+](=O)[O-])o3)n2)C(C)(C)C1,"inconclusive: 58.5 µM [inhibitor, partial curve, poor fit]",
Cc1cc2c3c(c1)C1(C(=O)N3C(C)(C)CC2C)C(C#N)=C(N)Oc2cc(O)ccc21 (centres undefined),"inconclusive: 50.1 µM [inhibitor, single point]",
Cc1nc(C)c(-c2csc(Nc3ccc(F)cc3)n2)s1,,inactive: 14.2%
CCCNS(=O)(=O)c1ccc(CCC(=O)Nc2cc(Cl)ccc2Oc2ccccc2)cc1,,inactive: 6.25%
Cc1ccc(Cn2c(C(=O)O)c(CNCc3ccccc3Cl)c3ccc(C)cc32)cc1,,inactive: -10.5%
CCc1ccc(C2c3c(-c4ccccc4O)n[nH]c3C(=O)N2Cc2ccncc2)cc1 (centres undefined),active: 35.5 µM,
COc1ccc(C(C)=O)cc1CSc1nnc(Nc2ccc(C)cc2C)s1,,inactive: 5.66%
NNC(=S)NC1CCCCCCCCCCC1,"inconclusive: 58.5 µM [inhibitor, single point]",
CCOC(=O)N1CC=C2C(C#N)=C(N)C(C#N)(C#N)[C@H](c3ccsc3)[C@H]2C1,active: 41.4 µM,
CC(=O)n1cc(N(C(=O)CCl)c2ccc(Cl)cc2)c2ccccc21,"inconclusive: 58.5 µM [inhibitor, single point]",
O=C(Cc1ccccc1)Nc1cccc(N2C(=O)C=CC2=O)c1,,inactive: 0.992%
Cc1ccc(C(C)C)c(OCC(=O)Nc2ccc(O)c(-c3nc4cc(Cl)ccc4o3)c2)c1,"inconclusive: 89.1 µM [inhibitor, single point]",
O=C1CCSC2(C(=O)N(Cc3ccc(F)cc3)c3ccccc32)N1c1cccc(F)c1 (centres undefined),active: 28.2 µM,
Cc1cc(C)c2c3c(c(-c4ccccc4)n2n1)c(=O)n(C)c(=O)n3C,,inactive: 11.1%
O=C(Nc1ccc(S(=O)(=O)Nc2nccs2)cc1)c1nn(-c2ccccc2)ccc1=O,"inconclusive: 58.5 µM [inhibitor, single point]",
CCc1sc(NC(=O)COC)nc1-c1ccccc1,,inactive: 0.0748%
COc1ccc(NC(=O)CCc2nnc3n(Cc4ccc(C)cc4)c(=O)c4ccccc4n23)cc1,"inconclusive: 50.1 µM [inhibitor, single point]",
COc1ccc(NS(=O)(=O)c2ccc3[nH]c4c(c3c2)CCCCC4)cc1,,inactive: 14.7%
Cc1ccc(NC(=O)c2sc3nc(N4CCOCC4)c4c(c3c2N)CCCC4)cc1,"inconclusive: 35.5 µM [inhibitor, partial curve, poor fit]",
O=C(O)c1cc(-c2ccc(-c3c(-c4ccc5c(c4)OCO5)noc3-c3ccsc3)cc2)nc2ccccc12,active: 44.7 µM,
CS(=O)(=O)Nc1ccccc1C(=O)OCc1cc(=O)n2nc(C3CCCCC3)sc2n1,"inconclusive: 63.1 µM [inhibitor, single point]",
COc1cc2c(cc1OC)C(c1ccc3c(c1)OCO3)C1=C(CC(C)(C)CC1=O)N2 (centres undefined),"inconclusive: 58.5 µM [inhibitor, single point]",
